The results in this text go back to the supplement of paper PMC12217912.

Some of the results follow. The full chains were built here from the parent and the listed change. Inactive controls read about 0.05.

B1: TEV protease; numbered along this chain (parent)
chain: MGESLFKGPRDYNPISSSICHLTNESDGHTTSLYGIGFGPFIITNKHLFRRNNGTLVVQSLHGVFKVKDTTTLQQHLVDGRDMIIIRMPKDFPPFPQKLKFREPQREERICLVTTNFQTKSMSSMVSDTSCTFPSGDGIFWKHWIQTKDGQCGSPLVSTRDGFIVGIHSASNFTNTNNYFTSVPKNFMELLTNQEAQQWVSGWRLNADSVLWGGHKVFMVKPEEPFQPVKEATQL

In this experiment the parent is B1. Nature of the experiment: raw area under fraction-flipped curve 0-4 h after induction (AUC4h, not background-subtracted), DNA-recorder readout of cleavage of the substrate (dimensionless); higher = more cleavage of the substrate by the protease variant. As to conditions: temperature: 34 °C; time window: 0-4 h after rhamnose induction. As for the experimental part: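 In vivo DNA recorder in E. coli TOP10(DE3) ΔrhaA at 34 °C. Each TEVp single-site mutant (parent TEVp 0) is paired with a single-site variant of the 7-mer TEVs (canonical ENLYFQ|S). The substrate sits between flexible linkers in a Bxb1-sfGFP-TEVs-SsrA fusion, so cleavage stabilises Bxb1 and speeds flipping of a recombination array, read by NGS. The value is the raw area under the fraction-flipped curve over 0-4 h after rhamnose induction (AUC4h), with ≥20 reads per time point. It is not background-subtracted; inactive controls average about 0.047.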
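Note: Bxb1 expression induced with 0.2% (w/v) L-rhamnose at OD600 near 0.5, cultures sampled hourly, flipped fraction per protease–substrate barcode pair counted by paired-end Illumina sequencing.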

In the case of MGESLFKGPRDYNPISSSICHLTNESDGHTTSLYGIGFGPFIITNKHLFRRNNGTLVVQSLHGVFKVKDTTTLQQHLVDGRDMIIIRMPKDFPPFPQKLKFREPQREERICLVTTNFQTKSMSSMVSDTSCTFVSGDGIFWKHWIQTKDGQCGSPLVSTRDGFIVGIHSASNFTNTNNYFTSVPKNFMELLTNQEAQQWVSGWRLNADSVLWGGHKVFMVKPEEPFQPVKEATQL [P134V], the “area with substrate ENLYFAS” value worked out at 0.0557, the “area with substrate ENLYFES” value was found to be 0.0597, the “area with substrate ENLYFFS” value came out at 0.0548 and the “area with substrate ENLYFGS” value came out at 0.0667. The “area with substrate ENLYFIS” value came to 0.0526, the “area with substrate ENLYFLS” value amounted to 0.0565, the “area with substrate ENLYFNS” value stood at 0.0621 and the “area with substrate ENLYFPS” value worked out at 0.0703. Further, the “area with substrate ENLYFRS” value was found to be 0.0565, the “area with substrate ENLYFTS” value came out at 0.0472, the “area with substrate ENLYFVS” value was 0.0578 and the “area with substrate ENLYFWS” value is 0.0588.
As to MGESLFKGPRDYNPISSSICHLTNESDGHTTSLYGIGFGPFIITNKHLFRRNNGTLVVQSLHGVFKVKDTTTLQQHLVDGRDMIIIRMPKDFPPFPQKLKFREPQREERICLVTTNFQTKSMSSMVSDTSCTFPSGDGIFWKHWIQTHDGQCGSPLVSTRDGFIVGIHSASNFTNTNNYFTSVPKNFMELLTNQEAQQWVSGWRLNADSVLWGGHKVFMVKPEEPFQPVKEATQL [K148H], the “area with substrate ENLYFAS” value came to 0.0668, the “area with substrate ENLYFDS” value came to 0.0643, the “area with substrate ENLYFES” value was found to be 0.0872 and the “area with substrate ENLYFFS” value came to 0.0607. The “area with substrate ENLYFHS” value worked out at 0.0619, the “area with substrate ENLYFIS” value is 0.0544, the “area with substrate ENLYFKS” value is 0.077 and the “area with substrate ENLYFNS” value was determined as 0.0703. For the same variant, the “area with substrate ENLYFPS” value worked out at 0.062, the “area with substrate ENLYFSS” value was 0.0509, the “area with substrate ENLYFTS” value was determined as 0.0611 and the “area with substrate ENLYFWS” value stood at 0.0747. Also, the “area with substrate ENLYFYS” value worked out at 0.0481.
Turning to MGESLFKGPRDYNPISSSICHLTNESDGHTTSLYGIGFGPFIITNKHLFRRNNGTLVVQSLHGVFKVKDTTTLQQHLVDGRDMIIIRMPKDFPPFPQKLKFREPQREERICLVTTNFQTKSMSSMVSDTSCTFPSGDGIFWAHWIQTKDGQCGSPLVSTRDGFIVGIHSASNFTNTNNYFTSVPKNFMELLTNQEAQQWVSGWRLNADSVLWGGHKVFMVKPEEPFQPVKEATQL [K142A], the “area with substrate ENLYFAS” value was 0.0602, the “area with substrate ENLYFES” value came to 0.0656, the “area with substrate ENLYFIS” value turned out to be 0.0386 and the “area with substrate ENLYFKS” value amounted to 0.0612. The “area with substrate ENLYFMS” value was found to be 0.0572, the “area with substrate ENLYFNS” value turned out to be 0.0388, the “area with substrate ENLYFPS” value turned out to be 0.0545 and the “area with substrate ENLYFRS” value came to 0.0481. The “area with substrate ENLYFTS” value was 0.0535.
As to MGESLFKGPRDYNPISSSICHLTNESDGHTTSLYGIGFGPFIITNKHLFRRNNGTLVVQSLHGVFKVKDTTTLQQHLVDGRDMIIIRMPKDFPPFPQKLKFREPQREERICLVTTNFQTKSMSSMVSDTSCTFPSGDGIFWKHWIQTKLGQCGSPLVSTRDGFIVGIHSASNFTNTNNYFTSVPKNFMELLTNQEAQQWVSGWRLNADSVLWGGHKVFMVKPEEPFQPVKEATQL [D149L], the “area with substrate ENLYFAS” value is 0.0577, the “area with substrate ENLYFCS” value is 0.0634, the “area with substrate ENLYFDS” value was found to be 0.0586 and the “area with substrate ENLYFES” value was found to be 0.0675. For the same variant, the “area with substrate ENLYFFS” value was determined as 0.0793, the “area with substrate ENLYFHS” value worked out at 0.0681, the “area with substrate ENLYFIS” value came to 0.0529 and the “area with substrate ENLYFRS” value was determined as 0.036. Besides, the “area with substrate ENLYFSS” value came to 0.0665, the “area with substrate ENLYFVS” value came to 0.0572 and the “area with substrate ENLYFYS” value turned out to be 0.0728.
As to MGESLFKGPRDYNPISSSICHLTNESDGHTTSLYGIGFGPFIITNKHLFRRNNGTLVVQSLHGVFKVKDTTTLQQHLVDGRDMIIIRMPKDFPPFPQKLKFREPQREERICLVTTNFQTKSMSSMVSDTSCTRPSGDGIFWKHWIQTKDGQCGSPLVSTRDGFIVGIHSASNFTNTNNYFTSVPKNFMELLTNQEAQQWVSGWRLNADSVLWGGHKVFMVKPEEPFQPVKEATQL [F133R], the “area with substrate ENLYFAS” value was determined as 0.0625, the “area with substrate ENLYFCS” value was found to be 0.0603, the “area with substrate ENLYFFS” value was determined as 0.0674 and the “area with substrate ENLYFGS” value came out at 0.0296. The “area with substrate ENLYFIS” value was 0.0565, the “area with substrate ENLYFKS” value was 0.0535, the “area with substrate ENLYFLS” value came to 0.0607 and the “area with substrate ENLYFNS” value was 0.0647. For the same variant, the “area with substrate ENLYFPS” value was found to be 0.0965, the “area with substrate ENLYFRS” value is 0.0626, the “area with substrate ENLYFSS” value stood at 0.0305 and the “area with substrate ENLYFVS” value is 0.065. Further, the “area with substrate ENLYFWS” value came out at 0.0587.
Regarding MGESLFKGPRDYNPISSSICHLTNESDGHTTSLYGIGFGPFIITNKHLFRRNNGTLVVQSLHGVFKVKDTTTLQQHLVDGRDMIIIRMPKDFPPFPQKLKFREPQREERICLVTTNFQTKSMSSMVSDTSCTFPCGDGIFWKHWIQTKDGQCGSPLVSTRDGFIVGIHSASNFTNTNNYFTSVPKNFMELLTNQEAQQWVSGWRLNADSVLWGGHKVFMVKPEEPFQPVKEATQL [S135C], the “area with substrate ENLYFAS” value is 0.0718, the “area with substrate ENLYFCS” value came to 0.0619, the “area with substrate ENLYFES” value is 0.0506 and the “area with substrate ENLYFFS” value worked out at 0.0737. In addition, the “area with substrate ENLYFHS” value came to 0.0545, the “area with substrate ENLYFIS” value was 0.0559, the “area with substrate ENLYFKS” value was 0.0212 and the “area with substrate ENLYFLS” value was determined as 0.0517. Besides, the “area with substrate ENLYFMS” value was 0.0589, the “area with substrate ENLYFNS” value came out at 0.0666, the “area with substrate ENLYFPS” value worked out at 0.061 and the “area with substrate ENLYFRS” value came to 0.0908. In addition, the “area with substrate ENLYFSS” value amounted to 0.0502, the “area with substrate ENLYFTS” value is 0.0629, the “area with substrate ENLYFVS” value turned out to be 0.0565 and the “area with substrate ENLYFWS” value came to 0.0557. The “area with substrate ENLYFYS” value worked out at 0.0556.
With MGESLFKGPRDYNPISSSICHLTNESDGHTTSLYGIGFGPFIITNKHLFRRNNGTLVVQSLHGVFKVKDTTTLQQHLVDGRDMIIIRMPKDFPPFPQKLKFREPQREERICLVTTNFQTKSMSSMVSDTSCTFPWGDGIFWKHWIQTKDGQCGSPLVSTRDGFIVGIHSASNFTNTNNYFTSVPKNFMELLTNQEAQQWVSGWRLNADSVLWGGHKVFMVKPEEPFQPVKEATQL [S135W], the “area with substrate ENLYFAS” value is 0.0597, the “area with substrate ENLYFCS” value is 0.0595, the “area with substrate ENLYFDS” value came to 0.083 and the “area with substrate ENLYFES” value amounted to 0.067. The “area with substrate ENLYFFS” value was 0.0688, the “area with substrate ENLYFIS” value was 0.0498, the “area with substrate ENLYFKS” value came to 0.0642 and the “area with substrate ENLYFMS” value was determined as 0.0477. For the same variant, the “area with substrate ENLYFNS” value came out at 0.0602, the “area with substrate ENLYFPS” value was determined as 0.055, the “area with substrate ENLYFVS” value amounted to 0.0123 and the “area with substrate ENLYFWS” value is 0.0584.
With MGESLFKGPRDYNPISSSICHLTNESDGHTTSLYGIGFGPFIITNKHLFRRNNGTLVVQSLHGVFKVKDTTTLQQHLVDGRDMIIIRMPKDFPPFPQKLKFREPQREERICLVTTNFQTKSMSSMVSDTSCTFPSGDGIFWKHWIQAKDGQCGSPLVSTRDGFIVGIHSASNFTNTNNYFTSVPKNFMELLTNQEAQQWVSGWRLNADSVLWGGHKVFMVKPEEPFQPVKEATQL [T147A], the “area with substrate ENLYFAS” value is 0.0464, the “area with substrate ENLYFCS” value amounted to 0.044, the “area with substrate ENLYFES” value worked out at 0.0614 and the “area with substrate ENLYFFS” value is 0.065. For the same variant, the “area with substrate ENLYFGS” value is 0.0578, the “area with substrate ENLYFHS” value is 0.0694, the “area with substrate ENLYFIS” value was 0.0451 and the “area with substrate ENLYFKS” value worked out at 0.066. Also, the “area with substrate ENLYFLS” value came out at 0.0551, the “area with substrate ENLYFMS” value worked out at 0.0628, the “area with substrate ENLYFPS” value worked out at 0.0611 and the “area with substrate ENLYFRS” value was found to be 0.0625. The “area with substrate ENLYFSS” value is 0.0677, the “area with substrate ENLYFTS” value came out at 0.0644, the “area with substrate ENLYFVS” value amounted to 0.0595 and the “area with substrate ENLYFWS” value stood at 0.0735.
